Counter-ions that a name gives are not always drawn.
Tests used:
CYP2C8 = target: T1, CYP2C8 (Homo sapiens, UniProt P10632); experiment: Vivid CYP450 fluorescence-based inhibition assay, CYP2C8; details: read-out: IC50 with NADPH; 30 minutes pre-incubation with NADPH (time-dependent inhibition)
T1 sequence (P10632 1-490): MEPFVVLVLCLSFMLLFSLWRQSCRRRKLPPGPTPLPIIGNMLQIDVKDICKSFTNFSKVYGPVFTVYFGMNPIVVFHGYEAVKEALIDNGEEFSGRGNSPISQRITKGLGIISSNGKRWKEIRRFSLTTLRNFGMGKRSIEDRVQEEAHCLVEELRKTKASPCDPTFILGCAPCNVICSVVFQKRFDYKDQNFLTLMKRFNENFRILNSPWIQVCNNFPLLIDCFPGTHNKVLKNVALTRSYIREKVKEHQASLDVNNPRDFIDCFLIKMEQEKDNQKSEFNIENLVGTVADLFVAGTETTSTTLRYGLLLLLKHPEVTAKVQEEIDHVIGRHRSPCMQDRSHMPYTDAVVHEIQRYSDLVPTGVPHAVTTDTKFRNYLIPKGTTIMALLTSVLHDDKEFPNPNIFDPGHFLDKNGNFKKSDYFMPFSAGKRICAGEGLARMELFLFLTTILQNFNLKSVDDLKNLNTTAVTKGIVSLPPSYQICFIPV

CYP2A6 = target: T2, CYP2A6 (Homo sapiens, UniProt P11509); experiment: Vivid CYP450 fluorescence-based inhibition assay, CYP2A6
T2 sequence (P11509 1-494): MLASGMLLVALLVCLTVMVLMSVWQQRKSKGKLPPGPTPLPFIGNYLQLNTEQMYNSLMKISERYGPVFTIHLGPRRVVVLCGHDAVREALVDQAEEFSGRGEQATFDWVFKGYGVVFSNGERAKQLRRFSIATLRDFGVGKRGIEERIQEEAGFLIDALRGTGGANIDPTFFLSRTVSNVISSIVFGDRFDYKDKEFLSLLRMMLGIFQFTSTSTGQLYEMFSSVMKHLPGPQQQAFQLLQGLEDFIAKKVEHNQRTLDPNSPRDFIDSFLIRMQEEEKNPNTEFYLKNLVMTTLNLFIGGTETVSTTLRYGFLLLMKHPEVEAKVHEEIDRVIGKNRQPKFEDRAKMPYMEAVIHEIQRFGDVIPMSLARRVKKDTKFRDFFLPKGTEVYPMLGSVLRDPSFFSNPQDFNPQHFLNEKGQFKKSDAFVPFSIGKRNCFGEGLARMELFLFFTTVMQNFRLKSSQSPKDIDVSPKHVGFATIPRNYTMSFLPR

CYP2D6 = CYP2D6 (Homo sapiens, UniProt P10635); experiment: Vivid CYP450 fluorescence-based inhibition assay, CYP2D6
CYP2B6 = target: T3, CYP2B6 (Homo sapiens, UniProt P20813); experiment: Vivid CYP450 fluorescence-based inhibition assay, CYP2B6; details: read-out: IC50 with NADPH; 30 minutes pre-incubation with NADPH (time-dependent inhibition)
T3 sequence (P20813 1-491): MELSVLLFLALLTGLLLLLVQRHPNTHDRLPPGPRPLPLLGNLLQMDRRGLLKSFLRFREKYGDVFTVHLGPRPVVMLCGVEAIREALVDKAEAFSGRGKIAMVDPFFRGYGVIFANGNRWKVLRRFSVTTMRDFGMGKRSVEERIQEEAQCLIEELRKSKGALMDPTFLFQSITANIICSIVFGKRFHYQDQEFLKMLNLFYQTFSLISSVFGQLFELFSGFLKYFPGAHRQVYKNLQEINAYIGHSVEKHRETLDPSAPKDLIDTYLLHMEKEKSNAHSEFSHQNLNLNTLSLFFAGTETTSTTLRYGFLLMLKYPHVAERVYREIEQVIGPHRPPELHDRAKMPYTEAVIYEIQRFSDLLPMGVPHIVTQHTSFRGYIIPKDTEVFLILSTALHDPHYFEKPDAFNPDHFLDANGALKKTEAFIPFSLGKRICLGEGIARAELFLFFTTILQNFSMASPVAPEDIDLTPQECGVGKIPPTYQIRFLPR

[1] = IC50 with NADPH, 30 minutes pre-incubation with NADPH (time-dependent inhibition)

Chain of UniProt P10635 (P10635 whole entry): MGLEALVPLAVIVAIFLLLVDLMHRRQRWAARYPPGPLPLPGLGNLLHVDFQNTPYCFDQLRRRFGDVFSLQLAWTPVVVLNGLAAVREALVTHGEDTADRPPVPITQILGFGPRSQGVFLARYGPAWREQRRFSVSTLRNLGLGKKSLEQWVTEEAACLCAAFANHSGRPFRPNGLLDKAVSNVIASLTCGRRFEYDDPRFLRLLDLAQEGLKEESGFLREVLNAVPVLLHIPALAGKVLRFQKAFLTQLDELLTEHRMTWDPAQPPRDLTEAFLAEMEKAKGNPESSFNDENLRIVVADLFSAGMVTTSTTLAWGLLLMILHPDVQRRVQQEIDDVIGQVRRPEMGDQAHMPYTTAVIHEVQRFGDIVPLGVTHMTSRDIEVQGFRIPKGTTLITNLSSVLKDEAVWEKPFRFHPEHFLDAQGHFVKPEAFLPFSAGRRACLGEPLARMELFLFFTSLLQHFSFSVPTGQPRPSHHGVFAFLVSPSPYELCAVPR

With `C[C@H](N)[C@@H](O)c1ccccc1` [Cathine, (1 S, 2 S)-2-amino-1-phenylpropan-1-ol.hydrochloride] as the compound, how does the IC50 (CYP2C8) read?
The IC50 was over 100 µM.

What about the IC50 (CYP2A6; [1]) of the same compound?
The IC50 was 70 µM.

And the IC50 shift at 60 min (CYP2A6; human, pH 8, probe Vivid CC (3-cyanocoumarin))?
The IC50 shift at 60 min was 1.14.

And the IC50 (CYP2D6; [1])?
Its IC50 is 860 µM.

What about the IC50 (CYP2D6; IC50 without NADPH, reversible inhibition, no NADPH in pre-incubation, substrate EOMCC) of the same compound?
The IC50 was 435 µM.

What about the IC50 (CYP2B6) of the same compound?
Its IC50 is over 100 µM.

Source: PMC9411691, “Protein-Ligand Identification and In Vitro Inhibitory Effects of Cathine on 11 Major Human Drug Metabolizing Cytochrome P450s” (International Journal of Toxicology, 2022)
